Reference: publication PMC4336329 (PLoS ONE, 2015)
The whole screen tested about 310,000 compounds, of which about 2,200 (0.71%) showed an effect of 50% or more. The effect is printed as a negative number. This is one part of the list.

target: human ether-à-go-go-related gene (hERG) potassium channel (human, UniProt Q12809); experiment: primary screen, population patch clamp on CHO cells stably expressing hERG
Sequence (Q12809 whole entry, looked up): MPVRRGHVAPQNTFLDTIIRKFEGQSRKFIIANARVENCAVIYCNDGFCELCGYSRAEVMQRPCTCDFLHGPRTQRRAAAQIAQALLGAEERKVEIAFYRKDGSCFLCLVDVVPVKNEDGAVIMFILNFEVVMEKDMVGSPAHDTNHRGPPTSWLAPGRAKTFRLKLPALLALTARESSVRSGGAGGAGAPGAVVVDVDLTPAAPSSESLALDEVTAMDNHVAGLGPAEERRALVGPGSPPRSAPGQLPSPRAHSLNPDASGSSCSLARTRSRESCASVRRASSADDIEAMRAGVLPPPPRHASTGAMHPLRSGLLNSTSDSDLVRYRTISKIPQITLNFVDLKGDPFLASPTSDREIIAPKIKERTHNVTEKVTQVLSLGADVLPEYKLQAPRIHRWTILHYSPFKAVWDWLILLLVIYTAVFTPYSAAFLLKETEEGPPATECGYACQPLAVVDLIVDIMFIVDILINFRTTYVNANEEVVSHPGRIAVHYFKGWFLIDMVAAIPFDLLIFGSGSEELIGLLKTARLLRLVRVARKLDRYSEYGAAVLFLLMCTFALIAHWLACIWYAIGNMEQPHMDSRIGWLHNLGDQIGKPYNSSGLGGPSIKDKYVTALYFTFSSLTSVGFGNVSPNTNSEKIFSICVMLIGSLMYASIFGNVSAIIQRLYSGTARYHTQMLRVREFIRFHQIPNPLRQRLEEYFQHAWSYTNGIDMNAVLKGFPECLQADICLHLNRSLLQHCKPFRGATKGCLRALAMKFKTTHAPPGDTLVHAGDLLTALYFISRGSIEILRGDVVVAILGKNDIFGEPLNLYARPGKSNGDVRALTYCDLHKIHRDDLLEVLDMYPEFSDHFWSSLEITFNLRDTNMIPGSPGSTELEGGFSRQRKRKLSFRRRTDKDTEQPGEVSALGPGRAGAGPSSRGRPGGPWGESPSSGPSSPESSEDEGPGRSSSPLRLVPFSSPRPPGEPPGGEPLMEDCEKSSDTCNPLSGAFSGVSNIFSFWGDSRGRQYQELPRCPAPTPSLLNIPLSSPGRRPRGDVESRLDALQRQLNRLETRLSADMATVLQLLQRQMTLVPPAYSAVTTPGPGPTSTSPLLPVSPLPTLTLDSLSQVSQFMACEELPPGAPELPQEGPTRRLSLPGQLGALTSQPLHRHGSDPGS

Compound	hERG current change (%, negative = inhibition) at 1uM
O=C(CN1C(=O)C2C3C=CC(C3)C2C1=O)NC1CCCc2ccccc21 (centres unmarked)	11.2%
COc1ccccc1NC(=S)NCc1ccc(Cl)cc1	8.37%
O=C1NCCN1CCNS(=O)(=O)c1ccc(F)c(Cl)c1	3.67%
CCN(CC(=O)NCc1cccs1)C(=O)c1ccccc1F	1.34%
Cc1cc(NC(=O)c2cc3nc(C4CC4)cc(C(F)(F)F)n3n2)no1	0.67%
O=C(NCCC1=CCCCC1)C1CC(=O)N(Cc2ccccc2)C1 (centres unmarked)	10.2%
Cc1ccc(CN2C(=O)NC(=O)C3(Cc4c(nc5ccccn5c4=O)N4CCCCCC43)C2=O)cc1 (centres unmarked)	4.44%
O=C1c2ccccc2C(=O)N1CCc1ccccc1	10.8%
O=C(COc1ccc([N+](=O)[O-])cc1)Nc1ccc(C(=O)NCc2cccnc2)cc1	6.9%
N#Cc1nc(Cc2cccc3ccccc23)oc1N1CCC(C(N)=O)CC1	-5.51%
COc1ccccc1C(=O)COC(=O)CSCC(=O)Nc1cc(C)on1	14.8%
O=C1C=C(c2ccc3c(c2)OCO3)C[C@@H](c2ccc3c(c2)OCO3)C1	8.54%
CCOc1ccccc1NC(=O)CSC1=C(C#N)C(c2ccco2)C(C(=O)Nc2nc3ccccc3s2)=C(C)N1 (centres unmarked)	5.87%
CCCS(=O)(=O)N1CCC(C(=O)NCCCN(C)Cc2ccccc2)CC1	0.918%
COC(=O)C1=C(C)N(C2CCCC2)C(=O)C1(NC(C)=O)C(F)(F)F (centres unmarked)	4.73%
CC(=O)N1CCN(c2ccc(C(N)=O)cc2[N+](=O)[O-])CC1	9.41%
CC1(C)CC(NC(=O)N2c3ccccc3Sc3ccccc32)CC(C)(C)N1	10.4%
COc1ccc(C2CC(c3cccs3)=NN2C(=O)c2ccco2)cc1OC (centres unmarked)	5.22%
COc1ccccc1/C=N/NC(=O)c1sc(C)nc1C	14.6%
Cc1cnc(NC(=O)CSc2nnc(Cc3ccccc3)o2)s1	9.76%
O=C(CC1C(=O)NCCN1CCCc1ccccc1)NCCc1ccccc1F (centres unmarked)	10.9%
COC(=O)CNC(=O)c1c(-c2ccccc2Cl)noc1C	-0.146%

Compound	hERG current change (%, negative = inhibition) at 1uM
CCNC(=O)C/C(C)=N/NC(=O)C1CCCCC1	8.03%
COCCN(Cc1nc(C(c2ccccc2)c2ccccc2)no1)C(C)C	4.77%
COc1ccc(/C(=C/c2ccc(OC(F)F)c(OC)c2)C(=O)O)cc1OC	1.22%
NC(=O)c1ccsc1NC(=O)COC(=O)COc1ccc(C=O)cc1	14.3%
Cc1ccc2c(c1)N(C(=O)CCC(=O)N1CCCCC1)CCO2	-10.5%
CC(C)COC(=O)/C(C#N)=C/c1cn(Cc2ccccc2)c2ccccc12	10.7%
COc1ccc(C(=O)Nc2cccc(OC(=O)c3ccco3)c2)cc1	14.7%
COc1cccc2c1C(=O)c1ccc3ccccc3c1C2=O	-1.19%
Cc1ccc2nc(-c3ccccc3)cc(C(=O)NNC(=O)c3csc(N4CCOCC4)n3)c2c1	1.25%
CC(C)(C)c1cc2cccnc2n1Cc1cccc(F)c1	0.282%
Cn1cc(Br)c(C(=O)NNC(=O)c2ccccc2)n1	-4.57%
c1ccc(Oc2cccc(OCCCn3cncn3)c2)cc1	0.573%
Cc1cccc(NC(=O)[C@@H]2CCCN2C2=NS(=O)(=O)c3ccccc32)c1C	8.6%
Nc1ccc(Nc2ccccc2)cc1	5.24%
CCOC(=O)Cc1csc(NC(=S)NC(=O)C(C)(C)C)n1	-4.47%
C/C(=N\NC(=O)c1c(Cl)cnn1C)c1cccc(NC(=O)C(C)C)c1	-5.62%
CCn1ncc(Br)c1C(=O)Nc1ccc2c(c1)OCCO2	14.5%
CC(C)C(NS(=O)(=O)c1ccccc1)C(=O)OCc1cc([N+](=O)[O-])cc2c1OCOC2 (centres unmarked)	14.7%
O=C(Oc1cccc(-c2cnc3ccccc3n2)c1)c1ccco1	8.84%
CC(CN1CCOCC1)(NS(=O)(=O)c1ccccc1)c1ccccc1 (centres unmarked)	5.77%
Cc1cccc(C)c1NC(=O)COC(=O)C1C2CC3OC(=O)C1C3C2 (centres unmarked)	17.7%
COCCCNC(=O)c1ccc(N2CCOCC2)c(NS(=O)(=O)c2ccc(OC)cc2)c1	1.03%
